Assay results as given in the supplement of paper PMC10126150.
Sequences with one replicate were seen in a single cluster, so their values are uncertain.

tested on: ATP; experiment: switch fluorescence ratio, 500 uM ATP over buffer (Cy3 cluster intensity, sum of 5 cycles each) (fold (ratio)); higher = stronger signal-on switching upon ATP binding; sequences stand for … in TCGTCGGCAGCGTCAGATGTGTATAAGAGACAGTTTTTTTTTTTTTTTTTTTTTTTTT…TC; conditions: aptamer strand: ATP DNA aptamer (quencher-CACCTGGGGGAGTATTGCGGAGGAAGG + anchor), 100 nM annealed; ATP concentration: 500 uM; one replicate
Method in brief: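 Five buffer/ATP imaging cycles were run on Cy3-labelled switching-strand clusters on a modified Illumina MiSeq flow-cell, with NaOH stripping and re-annealing between cycles. In each cycle, clusters annealed to 100 nM quencher-labelled ATP aptamer were imaged in selection buffer, then after 15 min with 500 uM ATP at 22 °C. Per cluster, the fluorescence ratio is summed target-cycle over summed buffer-cycle Cy3 intensity, averaged per switch-domain sequence. Only clusters within 100-1000 RFU were kept.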
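Note: ATP exposure 15 min at 22 °C before imaging.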

| Sequence | switch fluorescence ratio |
| --- | --- |
| GCATCAGGCC | 1.02 |
| TTAGTTGCGT | 0.991 |
| CCCTTACTGC | 1.23 |
| GGTTAATGAC | 0.998 |
| TACCGTTCCT | 1.04 |
| GATTACGGAT | 1.02 |
| AGTGCGAACA | 0.976 |
| GTTGTTAGC | 1.01 |
| GTTTGTAAA | 0.989 |
| CCTTTAGAAA | 1.03 |
| CGACTAGTTT | 0.989 |
| TTACCTTTAA | 0.999 |
| TCCCAACGCC | 1.11 |
| TTATAGTA | 1.01 |
| TTTGATAGTG | 0.996 |
| AATAAGAATC | 0.972 |
| GGGATAGGAT | 0.987 |
| AGGCAACTCT | 0.992 |
| TAACACGGGT | 0.978 |
| GAGTCCGGTG | 1.2 |
| AACACATCGT | 1.02 |
| AGATAAGAGG | 1 |
| AGGCAGCGCG | 1.04 |

| Sequence | switch fluorescence ratio |
| --- | --- |
| CGCCGAGACG | 1.05 |
| AACTGTGGGA | 1.03 |
| ATAGGTGGCC | 0.979 |
| ATCTAGATTA | 1.02 |
| ATAGGCGGTA | 1.01 |
| TCAATCCCAT | 1.05 |
| GATAGAGGAG | 0.967 |
| TTCAGGAGAT | 1.3 |
| GCTGTTGGCC | 0.993 |
| ATTATCGTAT | 1.03 |
| TACAATGCGG | 1.03 |
| GATCTTCATC | 0.966 |
| TACTCGGGTG | 1.18 |
| CAGCTCATGT | 0.965 |
| CATGATGAAC | 0.93 |
| CTCATATCAA | 0.992 |
| GAAACCACGC | 1.66 |
| ACATTTTTGG | 1.01 |
| TGGGAGGAAG | 0.985 |
| TAAGTCCCGT | 0.999 |
| TCATACGGCA | 1.23 |
| GACACCGGGA | 1.01 |
| ATGTTGAGAC | 1.01 |

| Sequence | switch fluorescence ratio |
| --- | --- |
| CCTTGAGATG | 1.03 |
| CCCATAGTAG | 1.03 |
| CATAATACAC | 1.05 |
| GCTGTTCGAC | 0.997 |
| TACCAGAGGT | 0.985 |
| GACGGCGTAT | 1.03 |
| TAAATTTT | 1.05 |
| GCGTGAGGGT | 0.987 |
| CAATAATATT | 1.03 |
| TTGACAGTAG | 1.01 |
| CTCAGGTATA | 1.03 |
| CGGTGCGCGG | 1.01 |
| CTGTAAAGAA | 0.957 |
| CTGGGATAAT | 1.01 |
| TCGGGAAGAC | 1.59 |
| TAGCTTTTCC | 1.11 |
| ATAGTCTAGG | 0.941 |
| TTGTTATTGA | 0.979 |
| ACTTGGCCGC | 1.11 |
| CCCTGTCTGT | 1.04 |
| GCTGGCGTG | 1 |
| GGACTATAAA | 1.05 |
| TTGAGATTCT | 1.04 |

| Sequence | switch fluorescence ratio |
| --- | --- |
| TCGGGAGTTT | 1 |
| ATGCGTGTAG | 1.03 |
| TAATGAAGTA | 1.03 |
| CTGGGCAATT | 2.56 |
| AATACGTATC | 1.11 |
| CTAGGGCCGT | 1.04 |
| CTAGCGATAT | 3.15 |
| GCCCTTAGAT | 0.964 |
| AAGTTCAAT | 1.02 |
| GCAGAGATCG | 0.944 |
| TAAAATTTTG | 1.04 |
| TCATAAGAGT | 0.991 |
| TACCGTAGGT | 0.976 |
| GCGTATATGG | 1.01 |
| CGTTAATCCT | 1.12 |
| ACGCGATGG | 1.22 |
| TTGTGTTATA | 0.997 |
| GACTAGCGGA | 1.04 |
| GCGAATTCAT | 1.01 |
| ACGGTCAAAA | 0.987 |
| CTTCACTTTT | 0.99 |
| GGTTGGGCCC | 0.98 |
| GAGCGCTGTA | 1.01 |

| Sequence | switch fluorescence ratio |
| --- | --- |
| ACCTGTCAAC | 1.08 |
| GAGTGCTCAA | 1.01 |
| GCTGGCTCAT | 0.979 |
| CTCCTGCGTA | 2.21 |
| AAGAGTTATT | 1.02 |
| TATTGCAAGA | 0.999 |
| GATGCCTAC | 1.21 |
| GTCATAAATT | 1.02 |
| GGCGATACTG | 1.67 |
| GGTTAGTAAT | 1.01 |
| CGCAGGTGAA | 1.8 |
| CGTACTCATC | 1.06 |
| CGGTGTCACG | 0.944 |
| CGGCGAGATC | 1.05 |
| CGAACACAG | 1.08 |
| CATTGCGTCC | 1.04 |
| AATTGACTTG | 1.05 |
| CCTGCCTTTG | 1.15 |
| CCGGTTTGTT | 1.07 |
| TTAATGTCCA | 0.967 |
| ATAACAGGGA | 0.977 |
| GGGACTCATA | 1.01 |
| GTGCTTGTGG | 1 |

| Sequence | switch fluorescence ratio |
| --- | --- |
| CATCATTTCA | 0.988 |
| ATCTTTAACG | 0.983 |
| CTCAACGTAC | 1.8 |
| AGCCATTACT | 1.19 |
| TAGGTGAAGC | 0.984 |
| CGTCAATCTG | 1.1 |
| TACCGTTGAA | 0.989 |
| TACAGGTCGC | 1.05 |
| TTTTGCCAAT | 1.02 |
| AAAACTAGCT | 1.02 |
| GTTGATTGGA | 1.02 |
| CATTAATA | 0.999 |
| CGTACGGTTG | 0.967 |
| ACATAATAGC | 1.01 |
| CAGTGGCCAG | 1.03 |
| CTTGCACGTC | 1.06 |
| GCACCGAGTA | 0.977 |
| TATGGACGAT | 0.984 |
| TAATAAAACA | 0.983 |
| ACTGCATCTG | 1.03 |
| TATAGTCGTT | 1.05 |
| AGAGCGCATG | 1.03 |
| CGTTGGTCTC | 0.959 |

| Sequence | switch fluorescence ratio |
| --- | --- |
| GGTCCTGACT | 1.05 |
| ACGAATCCAC | 1.1 |
| CCAGGATCTG | 1 |
| TTCTTGCAGT | 0.998 |
| CTTGTGGGCT | 1.01 |
| TATGGGCCTT | 0.944 |
| TAGGAAGTAA | 1.02 |
| ATTGTTATG | 1.08 |
| AATATCCTCG | 1.02 |
| CAAGGGAGAT | 1 |
| GCGAATTCTG | 0.993 |
| GTTGAGATCT | 1.02 |
| AGTGATAAGG | 1 |
| ACGGTAATGG | 1.11 |
| CAGGGTCACG | 0.987 |
| TCAAGGAATG | 0.955 |
| ATGCTACGTC | 0.996 |
| TTATTTCGCA | 1.02 |
| AGAATGGGCC | 0.986 |
